# Reference: the supplement of paper PMC8728848
# The list shows a part of the results.
# B1: Gal 9 (Homo sapiens), O00182 (protein)
# chain: MAFSGSQAPYLSPAVPFSGTIQGGLQDGLQITVNGTVLSSSGTRFAVNFQTGFSGNDIAFHFNPRFEDGGYVVCNTRQNGSWGPEERKTHMPFQKGMPFDLCFLVQSSDFKVMVNGILFVQYFHRVPFHRVDTISVNGSVQLSYISFQNPRTVPVQPAFSTVPFSQPVCFPPRPRGRRQKPPGVWPANPAPITQTVIHTVQSAPGQMFSTPAIPPMMYPHPAYPMPFITTILGGLYPSKSILLSGTVLPSAQRFHINLCSGNHIAFHLNPRFDENAVVRNTQIDNSWGSEERSLPRKMPFVRGQSFSVWILCEAHCLKVAVDGQHLFEYYHRLRNLPTINRLEVGGDIQLTHVQT
# Experiments:
# Experiment in all cases: glycan array binding signal (z-score within array); higher = stronger binding
# Conditions in all cases: glycan notation: IUPAC condensed, linker removed
# [1] = target: GlcNAc(b1-3)[GlcNAc(b1-6)]Gal(b1-4)GlcNAc
# Procedure, shortened: (§1)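 Arrays were curated from the Consortium for Functional Glycomics database, 3228 in total, and kept only where the protein sequence was available. Binding is expressed as a within-array Z-score. This score was averaged across arrays of the same protein sequence at different concentrations or buffers and across linkers, and negative values can be read as non-binding.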
# [2] = target: GlcNAc(b1-3)[GlcNAc(b1-6)]GalNAc
# Procedure, shortened: as §1
# [3] = target: GlcNAc(b1-4)Gal(b1-4)GlcNAc
# Procedure, shortened: as §1
# GlcNAc(b1-4)GlcNAc = target: GlcNAc(b1-4)GlcNAc
# Procedure, shortened: as §1
# [4] = target: GlcNAc(b1-4)GlcNAc(b1-4)GlcNAc
# Procedure, shortened: as §1
# [5] = target: GlcNAc(b1-4)GlcNAc(b1-4)GlcNAc(b1-4)GlcNAc(b1-4)GlcNAc
# Procedure, shortened: as §1
# [6] = target: GlcNAc(b1-4)GlcNAc(b1-4)GlcNAc(b1-4)GlcNAc(b1-4)GlcNAc(b1-4)GlcNAc
# Procedure, shortened: as §1
# [7] = target: GlcNAc(b1-4)[GlcNAc(b1-6)]GalNAc
# Procedure, shortened: as §1
# [8] = target: GlcNAc(b1-6)Gal(b1-4)GlcNAc
# Procedure, shortened: as §1
# GlcNAc(b1-6)GalNAc = target: GlcNAc(b1-6)GalNAc
# Procedure, shortened: as §1
# GlcNAc3Prop(b1-4)GlcNAc = target: GlcNAc3Prop(b1-4)GlcNAc
# Procedure, shortened: as §1
# [9] = target: GlcNAc6S(b1-3)Gal(b1-4)GlcNAc
# Procedure, shortened: as §1
# Kdn(a2-3)Gal(b1-3)GalNAc = target: Kdn(a2-3)Gal(b1-3)GalNAc
# Procedure, shortened: as §1
# Kdn(a2-3)Gal(b1-3)GlcNAc = target: Kdn(a2-3)Gal(b1-3)GlcNAc
# Procedure, shortened: as §1
# Kdn(a2-3)Gal(b1-4)Glc = target: Kdn(a2-3)Gal(b1-4)Glc
# Procedure, shortened: as §1
# Kdn(a2-3)Gal(b1-4)GlcNAc = target: Kdn(a2-3)Gal(b1-4)GlcNAc
# Procedure, shortened: as §1
# [10] = target: Kdn(a2-3)Gal(b1-4)[Fuc(a1-3)]GlcNAc
# Procedure, shortened: as §1
# Kdn(a2-6)Gal(b1-4)GlcNAc = target: Kdn(a2-6)Gal(b1-4)GlcNAc
# Procedure, shortened: as §1
# [11] = target: Man(a1-2)Man(a1-2)Man(a1-3)Man
# Procedure, shortened: as §1
# [12] = target: Man(a1-2)Man(a1-2)Man(a1-6)[Man(a1-3)]Man
# Procedure, shortened: as §1
# Man(a1-2)Man(a1-3)Man = target: Man(a1-2)Man(a1-3)Man
# Procedure, shortened: as §1
# [13] = target: Man(a1-2)Man(a1-3)[Man(a1-2)Man(a1-6)]Man
# Procedure, shortened: as §1
# [14] = target: Man(a1-2)Man(a1-3)[Man(a1-2)Man(a1-6)]Man(a1-6)[Man(a1-2)Man(a1-2)Man(a1-3)]Man
# Procedure, shortened: as §1
# [15] = target: Man(a1-2)Man(a1-3)[Man(a1-2)Man(a1-6)]Man(a1-6)[Man(a1-2)Man(a1-2)Man(a1-3)]Man(b1-4)GlcNAc(b1-4)GlcNAc
# Procedure, shortened: as §1
# [16] = target: Man(a1-2)Man(a1-3)[Man(a1-6)]Man(a1-6)[Man(a1-2)Man(a1-3)]Man(b1-4)GlcNAc(b1-4)GlcNAc
# Procedure, shortened: as §1
# [17] = target: Man(a1-2)Man(a1-6)[Man(a1-3)]Man(a1-6)[Man(a1-2)Man(a1-2)Man(a1-3)]Man
# Procedure, shortened: as §1
# [18] = target: Man(a1-2)Man(a1-6)[Man(a1-3)]Man(a1-6)[Man(a1-2)Man(a1-2)Man(a1-3)]Man(b1-4)GlcNAc(b1-4)GlcNAc
# Procedure, shortened: as §1
# Man(a1-3)[Man(a1-6)]Man = target: Man(a1-3)[Man(a1-6)]Man
# Procedure, shortened: as §1
# [19] = target: Man(a1-3)[Man(a1-6)]Man(a1-6)[Man(a1-2)Man(a1-3)]Man(b1-4)GlcNAc(b1-4)GlcNAc
# Procedure, shortened: as §1
# [20] = target: Man(a1-3)[Man(a1-6)]Man(a1-6)[Man(a1-3)]Man
# Procedure, shortened: as §1
# [21] = target: Man(a1-3)[Man(a1-6)]Man(a1-6)[Man(a1-3)]Man(b1-4)GlcNAc(b1-4)GlcNAc
# Procedure, shortened: as §1
# [22] = target: Man(a1-3)[Man(a1-6)]Man(b1-4)GlcNAc(b1-4)GlcNAc
# Procedure, shortened: as §1
# [23] = target: Man(a1-3)[Man(a1-6)]Man(b1-4)GlcNAc(b1-4)[Fuc(a1-6)]GlcNAc
# Procedure, shortened: as §1
# Man(a1-6)Man = target: Man(a1-6)Man
# Procedure, shortened: as §1
# Man(b1-4)GlcNAc = target: Man(b1-4)GlcNAc
# Procedure, shortened: as §1
# MurNAc(b1-4)GlcNAc = target: MurNAc(b1-4)GlcNAc
# Procedure, shortened: as §1
# Neu5Ac(a2-3)Gal = target: Neu5Ac(a2-3)Gal
# Procedure, shortened: as §1
# [24] = target: Neu5Ac(a2-3)Gal(b1-3)GalNAc
# Procedure, shortened: as §1
binder,measurement,setting,value
B1,glycan array binding signal (z-score),[1],-0.311
same,glycan array binding signal (z-score),[2],-0.318
same,glycan array binding signal (z-score),[3],-0.322
same,glycan array binding signal (z-score),GlcNAc(b1-4)GlcNAc,-0.324
same,glycan array binding signal (z-score),[4],-0.33
same,glycan array binding signal (z-score),[5],-0.325
same,glycan array binding signal (z-score),[6],-0.316
same,glycan array binding signal (z-score),[7],-0.335
same,glycan array binding signal (z-score),[8],-0.313
same,glycan array binding signal (z-score),GlcNAc(b1-6)GalNAc,-0.31
same,glycan array binding signal (z-score),GlcNAc3Prop(b1-4)GlcNAc,-0.333
same,glycan array binding signal (z-score),[9],-0.202
same,glycan array binding signal (z-score),Kdn(a2-3)Gal(b1-3)GalNAc,-0.314
same,glycan array binding signal (z-score),Kdn(a2-3)Gal(b1-3)GlcNAc,-0.281
same,glycan array binding signal (z-score),Kdn(a2-3)Gal(b1-4)Glc,-0.315
same,glycan array binding signal (z-score),Kdn(a2-3)Gal(b1-4)GlcNAc,-0.281
same,glycan array binding signal (z-score),[10],-0.312
same,glycan array binding signal (z-score),Kdn(a2-6)Gal(b1-4)GlcNAc,-0.312
same,glycan array binding signal (z-score),[11],-0.315
same,glycan array binding signal (z-score),[12],-0.312
same,glycan array binding signal (z-score),Man(a1-2)Man(a1-3)Man,-0.327
same,glycan array binding signal (z-score),[13],-0.305
same,glycan array binding signal (z-score),[14],-0.311
same,glycan array binding signal (z-score),[15],-0.301
same,glycan array binding signal (z-score),[16],-0.328
same,glycan array binding signal (z-score),[17],-0.321
same,glycan array binding signal (z-score),[18],-0.321
same,glycan array binding signal (z-score),Man(a1-3)[Man(a1-6)]Man,-0.316
same,glycan array binding signal (z-score),[19],-0.263
same,glycan array binding signal (z-score),[20],-0.309
same,glycan array binding signal (z-score),[21],-0.32
same,glycan array binding signal (z-score),[22],-0.313
same,glycan array binding signal (z-score),[23],-0.283
same,glycan array binding signal (z-score),Man(a1-6)Man,-0.31
same,glycan array binding signal (z-score),Man(b1-4)GlcNAc,-0.319
same,glycan array binding signal (z-score),MurNAc(b1-4)GlcNAc,-0.279
same,glycan array binding signal (z-score),Neu5Ac(a2-3)Gal,-0.321
same,glycan array binding signal (z-score),[24],-0.323
